The list shows a part of the results. Construct or isoform of the protein are uncertain.

For the assay, the target named is GST-SBP-ILF3 (Homo sapiens) (UniProt Q12906). Kind of assay: targeted RNA Bind-n-Seq. Conditions: RBNS binding buffer: 25 mM Tris pH 7.5, 150 mM KCl, 3 mM MgCl2, 0.1% Tween, 0.5 mg/mL BSA, 1 mM DTT; 27 nM protein, 750 pM RNA pool; temperature not stated; high values mean tight binding; sequences stand for … in GGGUAAAAGCGAGGUGAA…CGGGACAAGUAUUAUGGG
“UUUUUUUUUUGAGACGGAACCCGUCUCCUA [tttttgagapaired]”: the binding signal (log2 fold change) stood at 0.368.

In the case of “GUGUGGUGUGUUGGUCCCUAACACAUCACA [gtspaired]”, the binding signal (log2 fold change) was -0.732.

With “UUUUUUUUUUGAGAGGGAUGCCCUUUCCAG [tttttgagapaired]”, the binding signal (log2 fold change) worked out at 0.361.

With “GGUUGGUGUGUUGGUCCCUAACACAUCGAC [gtspaired]”, the binding signal (log2 fold change) was -0.581.

As to “UUCCUCUCUCCUCCGGGGGAGGGGGGAGGA [ctspaired]”, the binding signal (log2 fold change) was -0.132.

For the sequence “UUUUUUUUUUGAGAUCGGAACGAUCUUCUG [tttttgagapaired]”, the binding signal (log2 fold change) came to 0.406.

For the sequence “UUUUUUUUUUGAGACCGAGGCGGUCUCCUA [tttttgagapaired]”, the binding signal (log2 fold change) came to 0.435.

“UUUUUUUUUUGAGAGGGCAGCCCUCUCCAG [tttttgagapaired]”: the binding signal (log2 fold change) is 1.09.

Regarding “UUUUUUUUUUGAGAACGUAUCGUUCUCCGG [tttttgagapaired]”, the binding signal (log2 fold change) was found to be 0.177.

Take “UUUUUUUUUUGAGAUGGAUUCCGUCUCCUA [tttttgagapaired]”: the binding signal (log2 fold change) came out at 0.0429.

For the sequence “GGUUGUUGUGUUGGAGCCUAACACAACGAC [gtspaired]”, the binding signal (log2 fold change) is -0.65.

On to “GUGUGGUGUGUUGGUGUCUAACACACCGCG [gtspaired]”, for which the binding signal (log2 fold change) is -0.274.

Consider “UUUUUUUUUUGAGAGGGGGACCCUUUCCGG [tttttgagapaired]”, for which the binding signal (log2 fold change) was determined as 0.506.

On to “UUUUUUUUUUGAGACGGUGACCGUUUCCGG [tttttgagapaired]”, for which the binding signal (log2 fold change) came to 0.656.

Turning to “UUUUUUUUUUGAGACGGCUACCGUCUCCUA [tttttgagapaired]”, the binding signal (log2 fold change) was found to be 0.496.

Turning to “UUUUUUUUUUGAGACGGCUACCGUCUUCUA [tttttgagapaired]”, the binding signal (log2 fold change) was found to be 0.448.

As to “GUUGGUGGUGUUGGCCUCUAACACCAUCAA [gtspaired]”, the binding signal (log2 fold change) is -0.671.

“UUUUUUUUUUGAGAUGGGGGCCAUCUCCAG [tttttgagapaired]”: the binding signal (log2 fold change) amounted to 0.725.

Consider “UUUUUUUUUUGAGACUGUUGCAGUUUCCGG [tttttgagapaired]”, for which the binding signal (log2 fold change) came to 0.606.

“UUUUUUUUUUGAGAUCGGACCGAUCUCCAG [tttttgagapaired]”: the binding signal (log2 fold change) was determined as 0.483.

Regarding “UUUUUUUUUUGAGAUGGAAACCAUCUUCUG [tttttgagapaired]”, the binding signal (log2 fold change) came out at 0.0544.

With “UUUUUUUUUUGAGACUGAAACAGUCUCCAG [tttttgagapaired]”, the binding signal (log2 fold change) amounted to 0.0395.

Take “UUUUUUUUUUGAGAGCGGAACGCUCUCCAG [tttttgagapaired]”: the binding signal (log2 fold change) was 0.429.

As to “UUUUUUUUUUGAGACCGUCACGGUUUCCUA [tttttgagapaired]”, the binding signal (log2 fold change) came to 0.448.

For “GGUGGUGGUGUUGGCAUCUAACACCAUCGC [gtspaired]”, the binding signal (log2 fold change) is -0.348.

As for “UUUUUUUUUUGAGACUGAGACAGUUUCCAG [tttttgagapaired]”, the binding signal (log2 fold change) worked out at 0.42.

For “UUUUUUUUUUGAGAUGGCGGCCAUCUCCUA [tttttgagapaired]”, the binding signal (log2 fold change) amounted to 0.536.

For the sequence “UUUUUUUUUUGAGACGGAAUCCGUCUUCUA [tttttgagapaired]”, the binding signal (log2 fold change) came to 0.128.

Regarding “UUUUUUUUUUGAGAUGGAGGCCAUUUCCAG [tttttgagapaired]”, the binding signal (log2 fold change) amounted to 0.556.

Take “GUGUGUUGUGUUGGCACCUAACACAACGCA [gtspaired]”: the binding signal (log2 fold change) was -0.314.

On to “UUUUUUUUUUGAGAUCGGACCGAUCUCCUG [tttttgagapaired]”, for which the binding signal (log2 fold change) stood at 0.601.

For the sequence “UUUUUUUUUUGAGAGUGUGGCAUUCUCCAG [tttttgagapaired]”, the binding signal (log2 fold change) stood at 0.473.

For “UUUUUUUUUUGAGACGGCGUCCGUUUCCAG [tttttgagapaired]”, the binding signal (log2 fold change) turned out to be 0.922.

With “GUGGUGUGUGUUGGUGCCUAACACAUACCG [gtspaired]”, the binding signal (log2 fold change) is -0.352.

For “UUUUUUUUUUGAGACUGUUUCAGUCUCCAG [tttttgagapaired]”, the binding signal (log2 fold change) is 0.166.

As to “GUGUGUGGUGUUGGAGCCUAACACCGCGCG [gtspaired]”, the binding signal (log2 fold change) was -0.573.

As to “GGUGGUGGUGUUGGAACCUAACACCGCUAC [gtspaired]”, the binding signal (log2 fold change) is -0.779.

In the case of “UUUUUUUUUUGAGAUGGUGACCAUCUCCUA [tttttgagapaired]”, the binding signal (log2 fold change) worked out at 0.279.

As to “UUUUUUUUUUGAGAUGGGAGCCAUCUCCUG [tttttgagapaired]”, the binding signal (log2 fold change) was found to be 0.426.

Regarding “UUUUUUUUUUGAGAGCGAUACGCUCUCCGG [tttttgagapaired]”, the binding signal (log2 fold change) stood at 0.0235.

Consider “UUUUUUUUUUGAGAGUGUGGCAUUCUUCUA [tttttgagapaired]”, for which the binding signal (log2 fold change) turned out to be 0.442.

For the sequence “UUUUUUUUUUGAGAACGAUACGUUCUCCUA [tttttgagapaired]”, the binding signal (log2 fold change) was -0.0565.

With “GUGUGUUGUGUUGGCAUCUAACACAGCACA [gtspaired]”, the binding signal (log2 fold change) is -0.926.

In the case of “UUUUUUUUUUGAGAAGGACUCCUUCUCCGG [tttttgagapaired]”, the binding signal (log2 fold change) is -0.155.

“GUGGUUGGUGUUGGAGCCUAACACCGACCG [gtspaired]”: the binding signal (log2 fold change) is -0.572.

With “GUGGUGUGUGUUGGUCCCUAACACACAUCG [gtspaired]”, the binding signal (log2 fold change) was -0.602.

With “GUGUGUGGUGUUGGAUUCUAACACCACGCG [gtspaired]”, the binding signal (log2 fold change) was -0.501.

With “UUUUUUUUUUGAGAUCGACACGAUCUCCGG [tttttgagapaired]”, the binding signal (log2 fold change) came out at 0.227.

For the sequence “GGUGUGUGUGUUGGCUUCUAACACAUACGC [gtspaired]”, the binding signal (log2 fold change) is -0.853.

On to “GUGGUGUGUGUUGGUAUCUAACACAUACUA [gtspaired]”, for which the binding signal (log2 fold change) is -0.351.

Regarding “UUUUUUUUUUGAGAUCGAUACGAUCUCCUA [tttttgagapaired]”, the binding signal (log2 fold change) came out at 0.0919.

Take “UUUUUUUUUUGAGACUGGGGCAGUCUCCUA [tttttgagapaired]”: the binding signal (log2 fold change) amounted to 0.582.

As for “GGUGUUGGUGUUGGAAUCUAACACCAGCGC [gtspaired]”, the binding signal (log2 fold change) was -0.665.

As to “GUGGUUGGUGUUGGUAUCUAACACCGACUA [gtspaired]”, the binding signal (log2 fold change) is -0.488.

Regarding “UUUUUUUUUUGAGACCGACACGGUCUCCAG [tttttgagapaired]”, the binding signal (log2 fold change) amounted to 0.337.

“GUGUGUGGUGUUGGCCUCUAACACCAUACA [gtspaired]”: the binding signal (log2 fold change) is -0.518.

For “UUUUUUUUUUGAGACGGUUUCCGUCUCCGG [tttttgagapaired]”, the binding signal (log2 fold change) was 0.305.

For “UUUUUUUUUUGAGACGGAAACCGUUUCCGG [tttttgagapaired]”, the binding signal (log2 fold change) is 0.493.

For “UUUUUUUUUUGAGAUCGAAUCGAUCUCCUA [tttttgagapaired]”, the binding signal (log2 fold change) was 0.0834.

With “UUUUUUUUUUGAGAGUGAAACACUCUCCUA [tttttgagapaired]”, the binding signal (log2 fold change) is 0.0078.

For the sequence “UUUUUUUUUUGAGAUGGUUUCCAUCUUCUA [tttttgagapaired]”, the binding signal (log2 fold change) stood at 0.028.

Consider “UUUUUUUUUUGAGAGGGGCCCCCUCUCCUG [tttttgagapaired]”, for which the binding signal (log2 fold change) was determined as 1.36.

As for “UUUUUUUUUUGAGAAGGUAUCCUUCUCCUG [tttttgagapaired]”, the binding signal (log2 fold change) is -0.0538.

“GUUGGUGGUGUUGGCGCCUAACACCGCCAG [gtspaired]”: the binding signal (log2 fold change) was -0.485.

For the sequence “UUUUUUUUUUGAGACCGGGCCGGUUUCCAG [tttttgagapaired]”, the binding signal (log2 fold change) is 0.69.

The values above are taken from publication PMC5892938.
